# Reference: the supplement of paper PMC8728848
# The list shows a part of the results.
# B1: FliD (Clostridium difficile) (protein)
# chain: MSSISPVRVTGLSGNFDMEGIIEASMIRDKEKVNKAKQDQQIVKWKQEIYRDIIKESKNLYDKYLNGDSPNSITNKKAYSATRITSSDESIIVAKGSAGAEKINYQFAVSQMAEPAKVTIKLNSSDPIVQQFPPNASGASSLNIGGVNIPISEQDTTSTIVSKINSLCADNDIRASYSEMTGELIISRKQTGSSSDIDLKVIGNDSLAGQIASDNGITFTTDASGTKSAVVYGKNLEADVTDDQGRVTHISKEQNSFKIDNIDYNVNSKGSAKLVSVTDTEEATKNMKAFVDDYNALMDKVYGLVTTKKSKDYPPLTDEQKDDMTTEEIEKWEKKAKEGILRNDDELRAFVEDIQSMFFGDADTIIALRKLGISEHENYNKKGQISFNADTFSKALIDDSDKVYKALAGYSSNYDDKGMFEKLKKIVFEYSGSSASKLTKKAGMENSSSASQNVYSKQIAEQERNISRLVEKMNDKEKRLYAKYSALESLLNKYSSQMNYFSQAQGN
# Key:
# Assay in all cases: glycan array binding signal (z-score within array); higher = stronger binding
# Conditions in all cases: glycan notation: IUPAC condensed, linker removed
# [1] = biological target: GlcA(b1-3)Gal
# Procedure, shortened: (§1)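 From the Consortium for Functional Glycomics database, 3228 arrays were curated, keeping only those whose protein sequence was available. Binding is given as a within-array Z-score averaged across arrays sharing a protein sequence and across linkers. Negative Z-scores can be read as non-binding.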
# [2] = biological target: GlcA(b1-3)GlcNAc
# Procedure, shortened: as §1
# [3] = biological target: GlcA(b1-6)Gal
# Procedure, shortened: as §1
# [4] = biological target: GlcA3S(b1-3)Gal(b1-4)GlcNAc(b1-2)Man
# Procedure, shortened: as §1
# [5] = biological target: GlcA3S(b1-3)Gal(b1-4)GlcNAc(b1-3)Gal(b1-4)Glc
# Procedure, shortened: as §1
# [6] = biological target: GlcNAc(a1-3)Gal(b1-4)GlcNAc
# Procedure, shortened: as §1
# [7] = biological target: GlcNAc(a1-4)Gal(b1-3)GlcNAc
# Procedure, shortened: as §1
# [8] = biological target: GlcNAc(a1-4)Gal(b1-4)GalNAc
# Procedure, shortened: as §1
# [9] = biological target: GlcNAc(a1-4)Gal(b1-4)GlcNAc
# Procedure, shortened: as §1
# [10] = biological target: GlcNAc(a1-4)Gal(b1-4)GlcNAc(b1-3)Gal(b1-4)Glc
# Procedure, shortened: as §1
# [11] = biological target: GlcNAc(a1-4)Gal(b1-4)GlcNAc(b1-3)Gal(b1-4)GlcNAc
# Procedure, shortened: as §1
# [12] = biological target: GlcNAc(a1-4)Gal(b1-4)GlcNAc(b1-3)Gal(b1-4)GlcNAc(b1-3)Gal(b1-4)GlcNAc
# Procedure, shortened: as §1
# [13] = biological target: GlcNAc(a1-4)Gal(b1-4)GlcNAc(b1-3)Gal(b1-4)[Fuc(a1-3)]GlcNAc(b1-3)Gal(b1-4)[Fuc(a1-3)]GlcNAc
# Procedure, shortened: as §1
# [14] = biological target: GlcNAc(a1-6)Gal(b1-4)GlcNAc
# Procedure, shortened: as §1
# [15] = biological target: GlcNAc(b1-2)Gal(b1-3)GalNAc
# Procedure, shortened: as §1
# [16] = biological target: GlcNAc(b1-2)Man(a1-3)[GlcNAc(b1-2)Man(a1-6)]Man(b1-4)GlcNAc(b1-4)GlcNAc
# Procedure, shortened: as §1
# [17] = biological target: GlcNAc(b1-2)Man(a1-3)[GlcNAc(b1-2)Man(a1-6)]Man(b1-4)GlcNAc(b1-4)[Fuc(a1-6)]GlcNAc
# Procedure, shortened: as §1
# [18] = biological target: GlcNAc(b1-2)Man(a1-3)[GlcNAc(b1-4)][GlcNAc(b1-2)Man(a1-6)]Man(b1-4)GlcNAc(b1-4)GlcNAc
# Procedure, shortened: as §1
# [19] = biological target: GlcNAc(b1-2)Man(a1-3)[GlcNAc(b1-4)][GlcNAc(b1-2)Man(a1-6)]Man(b1-4)GlcNAc(b1-4)[Fuc(a1-6)]GlcNAc
# Procedure, shortened: as §1
# [20] = biological target: GlcNAc(b1-2)[GlcNAc(b1-4)]Man(a1-3)[GlcNAc(b1-2)Man(a1-6)]Man(b1-4)GlcNAc(b1-4)GlcNAc
# Procedure, shortened: as §1
# [21] = biological target: GlcNAc(b1-2)[GlcNAc(b1-4)]Man(a1-3)[GlcNAc(b1-4)][GlcNAc(b1-2)Man(a1-6)]Man(b1-4)GlcNAc(b1-4)GlcNAc
# Procedure, shortened: as §1
# [22] = biological target: GlcNAc(b1-2)[GlcNAc(b1-4)]Man(a1-3)[GlcNAc(b1-4)][GlcNAc(b1-2)[GlcNAc(b1-6)]Man(a1-6)]Man(b1-4)GlcNAc(b1-4)GlcNAc
# Procedure, shortened: as §1
# [23] = biological target: GlcNAc(b1-2)[GlcNAc(b1-4)]Man(a1-3)[GlcNAc(b1-4)][GlcNAc(b1-2)[GlcNAc(b1-6)]Man(a1-6)]Man(b1-4)GlcNAc(b1-4)[Fuc(a1-6)]GlcNAc
# Procedure, shortened: as §1
# [24] = biological target: GlcNAc(b1-2)[GlcNAc(b1-6)]Man(a1-6)[GlcNAc(b1-2)Man(a1-3)]Man(b1-4)GlcNAc(b1-4)GlcNAc
# Procedure, shortened: as §1
# [25] = biological target: GlcNAc(b1-2)[GlcNAc(b1-6)]Man(a1-6)[GlcNAc(b1-2)Man(a1-3)]Man(b1-4)GlcNAc(b1-4)[Fuc(a1-6)]GlcNAc
# Procedure, shortened: as §1
# [26] = biological target: GlcNAc(b1-2)[GlcNAc(b1-6)]Man(a1-6)[GlcNAc(b1-4)][GlcNAc(b1-2)Man(a1-3)]Man(b1-4)GlcNAc(b1-4)GlcNAc
# Procedure, shortened: as §1
# [27] = biological target: GlcNAc(b1-3)Fuc
# Procedure, shortened: as §1
# [28] = biological target: GlcNAc(b1-3)Gal
# Procedure, shortened: as §1
# [29] = biological target: GlcNAc(b1-3)Gal(b1-3)GalNAc
# Procedure, shortened: as §1
# [30] = biological target: GlcNAc(b1-3)Gal(b1-4)Glc
# Procedure, shortened: as §1
# [31] = biological target: GlcNAc(b1-3)Gal(b1-4)GlcNAc
# Procedure, shortened: as §1
# [32] = biological target: GlcNAc(b1-3)Gal(b1-4)GlcNAc(b1-2)Man(a1-3)[GlcNAc(b1-3)Gal(b1-4)GlcNAc(b1-2)Man(a1-6)]Man(b1-4)GlcNAc(b1-4)GlcNAc
# Procedure, shortened: as §1
# [33] = biological target: GlcNAc(b1-3)Gal(b1-4)GlcNAc(b1-2)Man(a1-3)[GlcNAc(b1-3)Gal(b1-4)GlcNAc(b1-2)Man(a1-6)]Man(b1-4)GlcNAc(b1-4)[Fuc(a1-6)]GlcNAc
# Procedure, shortened: as §1
# [34] = biological target: GlcNAc(b1-3)Gal(b1-4)GlcNAc(b1-2)[GlcNAc(b1-3)Gal(b1-4)GlcNAc(b1-6)]Man(a1-6)[GlcNAc(b1-3)Gal(b1-4)GlcNAc(b1-2)Man(a1-3)]Man(b1-4)GlcNAc(b1-4)GlcNAc
# Procedure, shortened: as §1
# [35] = biological target: GlcNAc(b1-3)Gal(b1-4)GlcNAc(b1-3)Gal(b1-4)GlcNAc
# Procedure, shortened: as §1
# [36] = biological target: GlcNAc(b1-3)Gal(b1-4)GlcNAc(b1-3)Gal(b1-4)GlcNAc(b1-2)Man(a1-3)[GlcNAc(b1-3)Gal(b1-4)GlcNAc(b1-3)Gal(b1-4)GlcNAc(b1-2)Man(a1-6)]Man(b1-4)GlcNAc(b1-4)GlcNAc
# Procedure, shortened: as §1
# [37] = biological target: GlcNAc(b1-3)Gal(b1-4)GlcNAc(b1-3)Gal(b1-4)GlcNAc(b1-2)Man(a1-3)[GlcNAc(b1-3)Gal(b1-4)GlcNAc(b1-3)Gal(b1-4)GlcNAc(b1-2)Man(a1-6)]Man(b1-4)GlcNAc(b1-4)[Fuc(a1-6)]GlcNAc
# Procedure, shortened: as §1
binder,measurement,setting,value
B1,glycan array binding signal (z-score),[1],-0.195
same,glycan array binding signal (z-score),[2],-0.112
same,glycan array binding signal (z-score),[3],0.617
same,glycan array binding signal (z-score),[4],-0.218
same,glycan array binding signal (z-score),[5],-0.273
same,glycan array binding signal (z-score),[6],-0.183
same,glycan array binding signal (z-score),[7],-0.073
same,glycan array binding signal (z-score),[8],-0.259
same,glycan array binding signal (z-score),[9],-0.21
same,glycan array binding signal (z-score),[10],-0.163
same,glycan array binding signal (z-score),[11],-0.211
same,glycan array binding signal (z-score),[12],-0.23
same,glycan array binding signal (z-score),[13],-0.204
same,glycan array binding signal (z-score),[14],-0.229
same,glycan array binding signal (z-score),[15],-0.207
same,glycan array binding signal (z-score),[16],-0.211
same,glycan array binding signal (z-score),[17],-0.212
same,glycan array binding signal (z-score),[18],-0.255
same,glycan array binding signal (z-score),[19],-0.174
same,glycan array binding signal (z-score),[20],-0.263
same,glycan array binding signal (z-score),[21],-0.264
same,glycan array binding signal (z-score),[22],-0.264
same,glycan array binding signal (z-score),[23],-0.261
same,glycan array binding signal (z-score),[24],-0.225
same,glycan array binding signal (z-score),[25],-0.109
same,glycan array binding signal (z-score),[26],-0.219
same,glycan array binding signal (z-score),[27],-0.089
same,glycan array binding signal (z-score),[28],-0.157
same,glycan array binding signal (z-score),[29],-0.135
same,glycan array binding signal (z-score),[30],-0.194
same,glycan array binding signal (z-score),[31],-0.247
same,glycan array binding signal (z-score),[32],-0.078
same,glycan array binding signal (z-score),[33],-0.232
same,glycan array binding signal (z-score),[34],0.02
same,glycan array binding signal (z-score),[35],-0.223
same,glycan array binding signal (z-score),[36],0.337
same,glycan array binding signal (z-score),[37],-0.112
